# In the RNAGym collection of RNA variant scans (doi:10.1073/pnas.2313332121):
# Variants at the floor of the assay are shown more often than the library holds them.
# B1: TPR 5TU (parent)
# chain: GGAUCUUCUCGAUCUAACAAAAAAGACAAAUCUGCCACAAAGCUUGAGAGCAUCUUCGGAUGCAGAGGCGGCAGCCUUCGGUGGCGCGAUAGCGCCAACGUUCUCAACUAUGACACGCAAAACGCGUGCUCCGUUGAAUGGAGUUUAUCAUG
# Variants of: B1
# Test: polymerase ribozyme fitness, log enrichment relative to wild type (log ratio); higher = more active; in vitro selection for triplet polymerase activity
# How it was run: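 To select mutant libraries of each subunit of a heterodimeric triplet polymerase ribozyme, built by PCR and transcribed, each was annealed with a biotinylated primer, partner subunit and triplets, then incubated frozen at −7 °C. Extended constructs were gel-excised, captured on streptavidin beads and amplified by RT-PCR, in one round carried out in triplicate. Illumina sequencing of input and output libraries kept genotypes with ≥10 input reads and ≥1 read per output. Fitness is the base-2 logarithm of genotype enrichment relative to wild-type enrichment, from inverse-variance-weighted replicate averages.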
row,Variant,polymerase ribozyme fitness (log ratio)
1,C63U G70C C95U A97U C116U,≤ -4.2
2,C63U G74A U78G C105G,≤ -4.2
3,A64U C85U U90A U130G,≤ -4.2
4,A64U C93U A150C,≤ -4.2
5,G65A C114A,-3.39
6,C63G C72U G88U G143C,≤ -4.2
7,A64U G124A A150C,≤ -4.2
8,C63U A122C,-0.464
9,C63U A122U,0.751
10,G65C C87U G124U G136A U148G,≤ -4.2
11,C63U C93A C116G A142G,-3.41
12,A64C G71A A91U C95G G126A A138C,≤ -4.2
13,C63U C79G A91G A107G,≤ -4.2
14,A64C G68C C87A A91G C99A A121C A122C,≤ -4.2
15,G62U A73U,-3.59
16,G65C G68A G83A A115U G140A,≤ -4.2
17,G65A G70A C85A A98U A137U U139G U145G,≤ -4.2
18,G62U A89U C116G C132G,≤ -4.2
19,A64C G84U A150C,≤ -4.2
20,G62C C85A,-3.75
21,C63A G74A A89C,≤ -4.2

row,Variant,polymerase ribozyme fitness (log ratio)
1,A64G C85U C131U U144C G152U,≤ -4.2
2,G62U C95A,-1.1
3,C63G G67C,≤ -4.2
4,G62C G80U,≤ -4.2
5,G62U G94A,-1.25
6,G62U A66G C93A A121U U148A,≤ -4.2
7,G65U C76U G84U G92A G133U,≤ -4.2
8,A64G C87A C116U A150G,≤ -4.2
9,C63U U104G,0.272
10,G65A C85U A137U U139A G140A G152A,-3.3
11,C63A C108G,≤ -4.2
12,G65A G70C A91C A107U,≤ -4.2
13,G62C G94A G133C G141U,-3.95
14,C63U G68A G92A A107U A142G,≤ -4.2
15,C63U C87A A89C C96U,≤ -4.2
16,A64U C87U G100C U135G A150G,≤ -4.2
17,A64G A91U C103U A119U G126C,≤ -4.2
18,A64C A73C U77C C96U U111G,≤ -4.2
19,C63U C75A G84A C118G A120G,≤ -4.2
20,C63A A66C C116G A142C,≤ -4.2
21,A64G C69U G92A A110C,≤ -4.2

row,Variant,polymerase ribozyme fitness (log ratio)
1,G65C G68U A97G A98U,≤ -4.2
2,G65A A113G,-3.91
3,G65C G68U A137C A150C,≤ -4.2
4,G62C G80A C85U U104G U139A G143C,≤ -4.2
5,A64U C79U C103A,≤ -4.2
6,C63U U102A U104G G124A,-2.05
7,G65A A66G A137C G141C,≤ -4.2
8,G65A A89U G94U,-2.57
9,C63G G65C A142U A150G,≤ -4.2
10,G62C G81C C99G A106C,≤ -4.2
11,C63A A89C C95G C114U C118U,≤ -4.2
12,C63G C87U U151G,≤ -4.2
13,G65A C76A G136A,≤ -4.2
14,G65A C76A C79A U109C G140U A150U,≤ -4.2
15,A64C G83C G141A,≤ -4.2
16,G62U G88A C96A A115C G136U U145A A147U,≤ -4.2
17,A64G C108G,≤ -4.2
18,A64U G80A U135C,≤ -4.2
19,A64C C93U U101G G140A,≤ -4.2
20,G62C U77G C93A U111A U134A U139A,≤ -4.2
21,G65U C72A C85A U135G,≤ -4.2

row,Variant,polymerase ribozyme fitness (log ratio)
1,G65U G88U,≤ -4.2
2,C63U G70C G92A U101C U134G,≤ -4.2
3,G62C C105G,≤ -4.2
4,G62C G68U A89G C108A A113U,≤ -4.2
5,C63U A89G C93A,≤ -4.2
6,G62C G88A C95G G117U A122G A137C,≤ -4.2
7,C63G G74U G80U G88A C99U C108U,≤ -4.2
8,G65C A119U G124A A137C U151C,≤ -4.2
9,A64U G94C A106G A107G C118U,≤ -4.2
10,G62C C96U C129A,≤ -4.2
11,C63A C79U G94C A119G,≤ -4.2
12,C63U C85U C95U C149U,-1.91
13,G62C G68U A120U G141U U148G,≤ -4.2
14,A64G G86U,≤ -4.2
15,G62C G68A G83C G126A A147G,≤ -4.2
16,G62C G68A G128A,≤ -4.2
17,A64G U82G A91U C95U A110U U111G,≤ -4.2
18,A64G C69A G83A G94A,≤ -4.2
19,C63U C75A G86A A89U A106U U134G,≤ -4.2
20,G65C C76A C79G G128U,≤ -4.2
